Assay results from the antibiotic and cytotoxicity screens of Wong et al. (2023).
This is one part of the list.

Legend:
HSkMC = human skeletal muscle cells; assay: cytotoxicity call (relative viability < 0.9); conditions: 10 µM
S. aureus RN4220 = assay: growth inhibition call (relative growth <= 0.2); conditions: 50 µM

Compound	cytotoxicity call (HSkMC)	growth inhibition call (S. aureus RN4220)
COc1ccc(NC(=O)N(C)C[C@H]2OCCCC[C@H](C)Oc3ccc(NC(=O)Nc4ccccc4)cc3C(=O)N([C@H](C)CO)C[C@@H]2C)cc1	inactive	inactive
C[C@@H]1CN([C@@H](C)CO)C(=O)Cc2cc(NS(=O)(=O)c3ccccc3)ccc2O[C@H]1CN(C)Cc1ccc(Oc2ccccc2)cc1	inactive	inactive
C[C@@H]1CN([C@@H](C)CO)C(=O)c2cccc(NC(=O)c3ccc(-c4nccs4)cc3)c2O[C@@H]1CN(C)S(=O)(=O)c1ccc(Cl)cc1	inactive	inactive
CO[C@H]1CN(C)C(=O)c2cc(NS(=O)(=O)c3cn(C)cn3)ccc2OC[C@H](C)N(CC2CC2)C[C@H]1C	inactive	inactive
C[C@@H]1CCCCO[C@@H](CN(C)Cc2ccc3c(c2)OCO3)[C@@H](C)CN([C@@H](C)CO)C(=O)c2cc(NS(=O)(=O)c3cccs3)ccc2O1	inactive	inactive
C[C@H](CO)N1C[C@H](C)[C@@H](CN(C)Cc2ccc(-c3ccccc3)cc2)Oc2ccc(NS(=O)(=O)c3ccccc3)cc2CC1=O	inactive	inactive
Cc1noc(C)c1NC(=O)Nc1ccc2c(c1)C(=O)N([C@H](C)CO)C[C@H](C)[C@@H](CN(C)S(=O)(=O)c1ccc(Cl)cc1)OCCCC[C@H](C)O2	inactive	inactive
Cc1noc(C)c1NC(=O)Nc1ccc2c(c1)CC(=O)N([C@H](C)CO)C[C@@H](C)[C@@H](CN(C)Cc1ccc(Oc3ccccc3)cc1)O2	inactive	inactive
Cc1ccc(S(=O)(=O)Nc2ccc3c(c2)CC(=O)N([C@@H](C)CO)C[C@H](C)[C@@H](CN(C)Cc2ccc(Cl)c(Cl)c2)O3)cc1	active	inactive
